According to US20250333467A1 (TECTONIC OPERATING, published 2025):

T1: human RXFP1 (human, UniProt Q9HBX9 1-757)
T1 sequence (looked up): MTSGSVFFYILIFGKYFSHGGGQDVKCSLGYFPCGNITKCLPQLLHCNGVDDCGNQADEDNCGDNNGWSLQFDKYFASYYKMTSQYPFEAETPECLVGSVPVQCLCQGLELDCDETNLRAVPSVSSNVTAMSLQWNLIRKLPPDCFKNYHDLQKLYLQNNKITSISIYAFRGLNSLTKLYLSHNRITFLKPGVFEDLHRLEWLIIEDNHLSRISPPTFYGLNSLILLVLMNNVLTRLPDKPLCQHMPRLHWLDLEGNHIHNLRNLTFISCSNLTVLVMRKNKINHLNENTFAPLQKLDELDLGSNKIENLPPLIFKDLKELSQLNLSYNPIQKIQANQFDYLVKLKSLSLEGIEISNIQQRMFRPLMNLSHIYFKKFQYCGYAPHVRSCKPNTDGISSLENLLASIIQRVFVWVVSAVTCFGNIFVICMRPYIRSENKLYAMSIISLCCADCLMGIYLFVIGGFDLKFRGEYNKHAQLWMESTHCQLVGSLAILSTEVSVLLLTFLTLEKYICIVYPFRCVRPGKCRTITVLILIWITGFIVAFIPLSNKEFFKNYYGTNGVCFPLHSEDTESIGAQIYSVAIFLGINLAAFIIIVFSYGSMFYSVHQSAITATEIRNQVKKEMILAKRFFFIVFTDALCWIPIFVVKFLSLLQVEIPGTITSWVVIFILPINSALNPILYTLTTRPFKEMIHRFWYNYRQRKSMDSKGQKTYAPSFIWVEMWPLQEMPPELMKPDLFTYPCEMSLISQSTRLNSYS

T2: rat RXFP1 (rat, UniProt Q6R6I6 1-758)
T2 sequence (looked up): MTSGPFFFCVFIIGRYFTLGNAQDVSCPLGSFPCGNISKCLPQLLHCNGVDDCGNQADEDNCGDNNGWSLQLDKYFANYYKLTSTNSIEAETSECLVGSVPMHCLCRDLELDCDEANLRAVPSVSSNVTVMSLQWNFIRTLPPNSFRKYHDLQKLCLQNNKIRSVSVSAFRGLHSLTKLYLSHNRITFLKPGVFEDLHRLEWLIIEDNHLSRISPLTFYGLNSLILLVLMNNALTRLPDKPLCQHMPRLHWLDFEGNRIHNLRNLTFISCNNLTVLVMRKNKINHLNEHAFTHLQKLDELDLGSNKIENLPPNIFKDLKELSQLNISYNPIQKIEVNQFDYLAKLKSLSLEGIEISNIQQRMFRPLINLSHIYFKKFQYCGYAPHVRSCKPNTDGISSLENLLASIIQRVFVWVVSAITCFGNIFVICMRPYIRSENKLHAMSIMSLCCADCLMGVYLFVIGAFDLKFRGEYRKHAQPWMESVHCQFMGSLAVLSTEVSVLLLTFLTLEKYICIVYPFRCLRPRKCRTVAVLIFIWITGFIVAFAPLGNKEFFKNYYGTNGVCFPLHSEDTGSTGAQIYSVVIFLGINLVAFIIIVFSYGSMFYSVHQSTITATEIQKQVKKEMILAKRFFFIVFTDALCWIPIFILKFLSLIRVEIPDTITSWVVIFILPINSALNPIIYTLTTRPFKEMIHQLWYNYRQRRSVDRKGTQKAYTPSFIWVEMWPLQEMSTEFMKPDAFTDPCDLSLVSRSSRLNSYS

B1: SEQ ID NO: 301 (Fc fusion)
chain: [human IgG1 Fc with changes not given here]GGSDSWKEEVIKLCGRELVRAQIAICGKSTGGGEGGGEGGGEGGGQLYSALANKCCHVGCTKRSLARFC
B2: SEQ ID NO: 302 (Fc fusion)
chain: [human IgG1 Fc with changes not given here]GGSDSWMEEVIKLCGRELVRAQIAICGKSTGGGEGGGEGGGEGRQLYSALANKCCHVGCTKRSLARFC
B3: SEQ ID NO: 497 (Fc fusion)
chain: [human IgG1 Fc not given here]GGGGSGGGGSGGGGSQLYSALANKCCHVGCTKRSLARFCGGGGSGGGGSGGGGSSWMEEVIKLCGRELVRAQIAICGMSTWS
B4: SEQ ID NO: 303 (Fc fusion)
chain: [human IgG1 Fc with changes not given here]GGSDSWQEEVIKLCGRELVRAQIAICGKSTGGGEGGGEGGGEGRQLYSALANKCCHVGCTKRSLARFC
B5: SEQ ID NO: 305 (Fc fusion)
chain: [human IgG1 Fc with changes not given here]GGSDSWMEEVIKLCGRELVRAQIAICGKSTGGGEGGGEGGGEGGGQLYSALANKCCHVGCTKRSLARFC
B6: SEQ ID NO: 306 (Fc fusion)
chain: [human IgG1 Fc with changes not given here]GGSDSWQEEVIKLCGRELVRAQIAICGKSTGGGEGGGEGGGEGGGQLYSALANKCCHVGCTKRSLARFC
B7: SEQ ID NO: 359 (Fc fusion)
chain: [human IgG1 Fc with changes not given here]GGSDSWKEEVIKLCGRELVRAQIAICGKSTASDAAGANANAGARQLYSALANKCCHVGCTKRSLAQFC
B8: SEQ ID NO: 360 (Fc fusion)
chain: [human IgG1 Fc with changes not given here]GGSDSWKEEVIKLCGRELVRAQIAICGKSTASDAAGANANAGARQLYSALANKCCHVGCTKRSLAEFC
B9: SEQ ID NO: 300 (Fc fusion)
chain: [human IgG1 Fc with changes not given here]GGSDSWKEEVIKLCGRELVRAQIAICGKSTGGGEGGGEGGGEGRQLYSALANKCCHVGCTKRSLARFC

Experiments:
Assay in all cases: cell-based or functional assay
[1] = biological target: T1, human RXFP1
[2] = biological target: T2, rat RXFP1
[3] = biological target: T2, rat RXFP1; remark: listed apart in the source
[4] = biological target: T1, human RXFP1; remark: listed apart in the source
[5] = biological target: T1, human RXFP1; remark: listed apart in the source
[6] = biological target: T2, rat RXFP1; remark: listed apart in the source

| Binder | EC50, cAMP response in RXFP1 transfected HEK293 cells [1] [nM] | pEC50, cAMP response in RXFP1 transfected HEK293 cells [1] | also measured |
| --- | --- | --- | --- |
| B1 | 7.87 | 8.1 | – |
| B2 | 2.41 | 8.62 | – |
| B3 | – | – | fold in vitro potency against SEQ ID NO: 87, rat RXFP1 signaling assay [2]: > 30 fold; EC50 for cAMP generation, recombinant rat RXFP1 assay (average) [3]: 1 nM; EC50 for cAMP generation, recombinant human RXFP1 assay (average) [4]: 0.3 nM; Potency (cAMP, transient hRXFP1 in HEK293) [5]: 0.3 nM; Transient HEK293 rRXFP1 cAMP EC50 [6]: 0.95 nM |
| B4 | 1.9 | 8.72 | – |
| B5 | 14.7 | 7.83 | – |
| B6 | 17.7 | 7.75 | – |
| B7 | 0.42 | 9.37 | – |
| B8 | 1.46 | 8.84 | – |
| B9 | 2.17 | 8.66 | – |
